# Measurements taken from PubChem BioAssay AID1745853 (National Center for Advancing Translational Sciences (NCATS), 2022).
# This is one part of the list. These are further read-outs of the screen, such as a control signal, another cell line or another target. No call is given for them.
# How the values were obtained:
# Test in all cases: Primary Screen for Target Class Profiling of Small Molecule Inhibitors of Methyltransferases
# [1] = biological target: Glycine N-methyltransferase (Homo sapiens) (UniProt Q14749); conditions: purified enzyme, MTase-Glo SAH luminescence; measured here: GNMT inhibition; at 40 µM; stronger effect = lower value
# Procedure, shortened: (§1)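 Each enzyme was reacted with SAM and its substrate, with compounds tested once at 40 uM; SAH formed was read by MTase-Glo luminescence.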
# [2] = biological target: Guanidinoacetate N-methyltransferase (Homo sapiens) (UniProt Q14353); conditions: purified enzyme, MTase-Glo SAH luminescence; measured here: GAMT inhibition; at 40 µM; stronger effect = lower value
# Procedure, shortened: as §1
# [3] = biological target: Histamine N-methyltransferase (Homo sapiens) (UniProt P50135); conditions: purified enzyme, MTase-Glo SAH luminescence; measured here: HNMT inhibition; at 40 µM; stronger effect = lower value
# Procedure, shortened: as §1
# [4] = biological target: Nicotinamide N-methyltransferase (Homo sapiens) (UniProt P40261); conditions: purified enzyme, MTase-Glo SAH luminescence; measured here: NNMT inhibition; at 40 µM; stronger effect = lower value
# Procedure, shortened: as §1
# [5] = biological target: Phenylethanolamine N-methyltransferase (Homo sapiens) (UniProt P11086); conditions: purified enzyme, MTase-Glo SAH luminescence; measured here: PNMT inhibition; at 40 µM; stronger effect = lower value
# Procedure, shortened: as §1
# % is set by controls: 0 for no effect and ±100 for the full control effect.
Compound,"activity change, negative = inhibition [1] [%]","activity change, negative = inhibition [2] [%]","activity change, negative = inhibition [3] [%]","activity change, negative = inhibition [4] [%]","activity change, negative = inhibition [5] [%]"
CCCn1c(=O)c2cc(Cl)ccc2n2c(SCC(=O)Nc3ccc(OC)cc3)nnc12,4.23,0,12.2,10.6,7.74
O=C(COC(=O)C(Cc1c[nH]c2ccccc12)NC(=O)c1ccco1)c1ccc(Cl)cc1 (stereo not given),-0.414,1.76,-0.552,-4.3,-0.572
CCCCN1C(=O)c2ccccc2C(C(=O)NC2CC2)C12CCCCC2 (stereo not given),-8.93,-12.2,-7.33,-17.1,-14.3
CCOC(=O)c1cccc(NS(=O)(=O)c2ccc3[nH]c(=O)[nH]c3c2)c1,-4.04,2.13,-7.37,-10.3,-14.9
NCCCCC(=O)O,-0.355,7.57,3.62,-7.13,-0.457
CCCCN(CC)CCN1C(=O)c2cc3occc3n2CC1(C)C(=O)NC1CCCCCC1 (stereo not given),7.05,0,1.74,7.07,3.64
O=C(NCC1CC1)C1CCc2ncc(-c3ccc(F)cc3)n2C1 (stereo not given),-0.481,-1.99,-8.1,-3.04,2.4
CC(C)=CCC[C@](C)(O[C@@H]1O[C@H](CO)[C@@H](O)[C@H](O)[C@H]1O)[C@H]1CC[C@]2(C)[C@@H]1[C@H](O)CC1[C@@]3(C)CC[C@H](O)C(C)(C)C3[C@@H](O[C@@H]3O[C@H](CO)[C@@H](O)[C@H](O)[C@H]3O[C@@H]3OC[C@@H](O)[C@H](O)[C@H]3O)C[C@]12C (stereo not given in full),0,-15,2.78,-27.5,-12.8
CC(C)[C@@H]1Nc2ccc(C(=O)O)cc2[C@@H]2C=CC[C@@H]21,-26.2,2.34,-0.735,6.93,-6.66
CC1CCN(S(=O)(=O)c2ccc3c(ccn3CC(=O)NCc3cccc(Cl)c3)c2)CC1,3.42,0,3.25,-1.47,-0.818
CCC(C)NC(=O)c1ccc2c(=O)n(CC(C)C)c3nn(CC(=O)Nc4ccccc4C)c(=O)n3c2c1 (stereo not given),5.42,0,11.8,-0.163,1.07
Cc1ccc(N2C(=O)c3nc4ccccc4n3CC2(C)C(=O)NC2CCC(C)CC2)cc1 (stereo not given),-6.26,-2.33,2.31,-1.72,-4.02
CC(C)(Oc1ccc(CCNC(=O)c2ccc(Cl)cc2)cc1)C(=O)O,0.062,14.4,7.97,-6.44,2.02
OCCN1CCN(CCCN2c3ccccc3Sc3ccc(C(F)(F)F)cc32)CC1,-7.3,3.8,-3.92,-37.4,4.02
O=C(CCn1ccc2cc(S(=O)(=O)N3CCCCC3)ccc21)NCc1cccnc1,3.66,2.82,6.68,2.64,2.91
CCCCNC(=O)Cn1ccc2cc(S(=O)(=O)N3CCCC3)ccc21,1.72,4.43,-4.62,1.63,0.514
COc1ccc(-c2nnc3n(Cc4ccc(F)cc4)c(=O)c4ccccc4n23)c(OC)c1,-5.37,5.91,-3.8,-5.62,-5.83
CCOc1ccc(-c2nn3ncccc3c2-c2ccc(S(C)(=O)=O)cc2)cc1,-16.7,-6.14,-1.18,-31.9,-5.13
CCOC(=O)c1cc2n(n1)CC(C)(C(=O)NCc1ccccc1)N(Cc1ccc(Cl)cc1)C2=O (stereo not given),0.171,0,3.66,1.14,-1.08
COCCCNc1nc2c(S(=O)(=O)c3c(C)cc(C)cc3C)nnn2c2ccccc12,-5.84,3.35,-6.35,-3.68,-3.93
O=C(NCC1CCCO1)N1CCCCCCn2c(nnc2-c2ccc(F)cc2)CC1 (stereo not given),-0.432,-9.14,0.171,-8.31,-2.5
CC(C)C[C@H](NC(=O)[C@@H]1C[C@@H](n2nnc(C(N)=O)c2C(N)=O)CCN1C(=O)c1cnccn1)C(N)=O,-1.89,-0.289,-1.4,-2.87,-2.62
CCCn1c(=O)c2ccccc2n2c(=O)n(CC(=O)c3cccc(Cl)c3)nc12,2.76,3.25,10.3,-32.1,5.4
O=C(CCc1nnc2n(CCc3ccccc3)c(=O)c3ccccc3n12)N1CCN(Cc2ccccc2)CC1,-12.4,0,-3.82,-24.5,-1.35
Cc1cn2nc(C(=O)NCc3cccnc3)cc2c(=O)[nH]1,-0.231,0.123,0.012,-3.08,0.488
CC(C)(C)c1ccc(/C=C/C(=O)Nc2ccc3c(c2)OCCO3)cc1,2.15,15.1,8.72,-2.47,5.35
CCN1C(=O)C2CC3(CCN(Cc4cnn(CC)c4C)CC3)CN2C1=O (stereo not given),-0.111,0.386,3.38,0.864,0.987
COc1cc(=O)n2c(c1C(=O)N1CCN(c3ccc(C)cc3C)CC1)CCCC2,-2.28,1.11,0.004,-0.275,2.26
COc1nccnc1-c1cc(NCCN(C)C)nc2[nH]ccc12,-8.71,-11.5,-10.4,-17.4,-20.3
C1=CC2c3c(ccc4ccccc34)NC(c3cccc4ccccc34)C2C1 (stereo not given),6.11,1.96,-13.6,-22.5,-23
